Laboratory results reported in the supplement of paper PMC11417369.
± gives the standard deviation of the averaged measurements. The list shows a part of the results.

tested on: PfAP2-G AP2 domain (GST-tagged); assay: gcPBM binding intensity (ln(normalized median fluorescence intensity)); higher = stronger DNA binding
Outline: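 Binding intensity is the highest Masliner-normalised natural-log median intensity over replicate spots in either probe orientation. To obtain it, GST-tagged P. falciparum DNA-binding domains made in E. coli were incubated for 1 h on an Agilent 4 × 180k array of primer-extended double-stranded 36-bp intergenic genomic probes plus negative controls. Detection used Alexa488 anti-GST antibody with scanning at 488 nm.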

| Sequence | gcPBM binding intensity (ln) |
| --- | --- |
| AAAAAAATAATTAACACACACATGTATATCTATATA [CACACA_site3139] | 9.77 ± 0.26 |
| TATATATATATATTATGTACTCATTTATTATCTTTT [XGTACX_site8051] | 11.4 ± 1.1 |
| TACAATGAACATGAAACACACAAAAAAAAAAAAAAA [CACACA_site1544] | 9.82 ± 0.45 |
| ACATAGTAAATATTATGTACATAATATATACATTTA [XGTACX_site7500] | 11.1 ± 0.72 |
| AATATACGATTGTCATTCATACATTGTTAACATAGT [CACACA_negctrl_site1151] | 10.12 ± 0.064 |
| ATATACAGAAAAAATTAAAATAAATATGCAAAACAA [CACACA_negctrl_site704] | 9.83 ± 0.014 |
| CTTAAACTTTTAAATACACACATACAGACATACACA [CACACA_site6401] | 10.4 ± 0.3 |
| TAAAAATGATCAAAGGGTACAGTATTAATTAAAAAA [XGTACX_site1079] | 11.3 ± 0.93 |
| TTTACTTTTTTTATATATTATTTATTATATAATATA [CACACA_negctrl_site211] | 9.76 ± 0.028 |
| TTCTTAATTCATACCATCAAAACATTTATTCATATC [CACACA_negctrl_site43] | 9.89 ± 0.057 |
| ATAGGGTTTCTACTTTAACATTTTTGAAATATTATA [GTGCAC_negctrl_site260] | 9.98 ± 0.13 |
| TTTATTTATATAATTACACACATATATACTCAAATG [CACACA_site5543] | 10.1 ± 0.19 |
| ATATGTACTATACGCACACACACTCACATATTTATA [CACACA_site7510] | 11.2 ± 0.67 |
| TATTATAAATAAATAGAAAAAAAAATGATAAATGGA [CACACA_negctrl_site865] | 9.85 ± 0.028 |
| ATAATAAATACACTAGTGCAAAATAATATATGTACT [GTGCAC_site9707] | 10.38 ± 0.099 |
| TATTTAGACATAACAAATAGACTAACAAAAGATTTA [GTGCAC_negctrl_site614] | 9.87 ± 0.071 |
| AAATGTGTTAATGTGCGTACACATATATATAATATT [XGTACX_site2792] | 11.7 ± 1.1 |
| ATCACTAATTTTTTTACACACCACAATTTAATTTTT [CACACA_site1186] | 10.2 ± 0.18 |
| AATATATACACATGCGCACACACAAGTGGGAAATTT [CACACA_site8527] | 10.4 ± 0.28 |
| TTTATATTTCATTTGTTATTTTTCTTGGTTCTATAT [TGCATGCA_negctrl_site23] | 9.89 ± 0.085 |
| TTTTTTTTTTTTTTTTTTATATTTCATAATTTCATT [XGTACX_negctrl_site579] | 9.33 ± 0.71 |
| TTTTGCCTGAACAATGCATGTTATTTTTATTTTTTT [TGCATGCA_site673] | 9.73 ± 0.26 |

| Sequence | gcPBM binding intensity (ln) |
| --- | --- |
| TCATTTAAGTCATATTGAAATATGCATTATTCAAAA [CACACA_negctrl_site958] | 9.88 ± 0.2 |
| ACCAATTTGACAAACTGTACAAAAAAAATATTAAAA [XGTACX_site1186] | 11 ± 0.56 |
| TATATATTCCTCCATAGTACAATAATAAAGATAAAA [XGTACX_site5785] | 10.6 ± 0.35 |
| TACACAAAAATAAACACACACACATATATATATATA [CACACA_site1000] | 10.1 ± 0.64 |
| CGCGAACATACATACACACACATATATATATCTGTA [CACACA_site4277] | 10 ± 0.14 |
| CTTTCCCTATATTGCTGTACATGTATTCAAAAAACA [XGTACX_site353] | 11.3 ± 0.83 |
| ATTTATATATATGTATGTACGTATGTGTGTATATGT [XGTACX_site7587] | 11.4 ± 0.88 |
| AACACCCAAAAACACACACACATACATACATACATA [CACACA_site4411] | 10.1 ± 0.16 |
| AACATTAATTTCCTATGTACTTAATATATTGTTTTT [XGTACX_site4440] | 11 ± 0.72 |
| TAATTAGTTTTTACTTTTTTTTTTTTTTTTCTATAT [CACACA_negctrl_site1024] | 9.66 ± 0.085 |
| TATATATACTTAGAAACACACAAAAATATTTTATAA [CACACA_site2578] | 10.01 ± 0.014 |
| TATAACTTATTTTTTAGTACATATTATAGTTCATTT [XGTACX_site8649] | 10.9 ± 0.59 |
| TTATGTATATTATAAATTAATACCTTTAAATTAATA [CACACA_negctrl_site67] | 9.74 ± 0.21 |
| ATAATCCTGAAACACACACACACACCCATAAATAAA [CACACA_site481] | 10.2 ± 0.33 |
| TGTGATTATGATAAAAGTACAGAAATAAATATACTA [XGTACX_site38] | 11.4 ± 1 |
| ATTCCTCATTAATATTCTTATTTTTTAATTCACATT [XGTACX_negctrl_site329] | 10 ± 0.085 |
| TAAAAGGAGACATATACACACATATATATATATATA [CACACA_site5539] | 10 ± 0.3 |
| TTTATTTAAAATAAGTGTACTAGAAAAATTAAGCAG [XGTACX_site4982] | 11.5 ± 0.95 |
| ATAAAAAGCTAAAAAGTGCAAAAAGTAAATATTTAA | 10.02 ± 0.049 |
| TTTTATAAAGAACACAGACACACAAAGAAAGAACCA [CACACA_site4174] | 10.6 ± 0.48 |
| CCTTTTTCTAATGGATGTACTTATTATATACATTAT [XGTACX_site281] | 11.2 ± 0.69 |
| AAGAAAAGTAAATATGCATGTAGGGTAGGTTATTTT [TGCATGCA_site46] | 10 ± 0.071 |

| Sequence | gcPBM binding intensity (ln) |
| --- | --- |
| ATATTTTTTCTGAACGGTACAGAATTTTTCAAGATT [XGTACX_site484] | 10.5 ± 0.33 |
| TATATATATCTGTATACACACATATGTATGTTATGT [CACACA_site6090] | 10.1 ± 0.13 |
| AAAATAAAAAGAAATAAATTAACAGTAAGGAAAAAA [CACACA_negctrl_site1105] | 9.85 ± 0.042 |
| TGAATAATCAATAGTACACACATATAAATATATATA [CACACA_site2813] | 11.2 ± 0.88 |
| AAATTTATATATAGTTGTACAAAAATATGTTTCGTA [XGTACX_site4801] | 11.2 ± 0.57 |
| TTATTTTATCACACATGTACATATGTTAATTTTTTT [XGTACX_site5598] | 11 ± 0.42 |
| AACATTTATATTTAAGTGCAGATGCTGTAATTTAGA | 9.805 ± 0.007 |
| TTTTTATAACAAAGTATTTAAATAATTTATACTAAT [TGCATGCA_negctrl_site104] | 9.97 ± 0.25 |
| GAACAAATTACAAGTTGTACTTTATGTAAATTATTA [XGTACX_site5304] | 11.2 ± 0.73 |
| ATGCGTTCATACATACATACATACATACAATTTGTA [TGCATGCA_negctrl_site50] | 10.3 ± 0.23 |
| TTTATTTTTATTTTTGTGCACGGGATTAAATAAAAG [GTGCAC_site9842] | 10.7 ± 0.63 |
| TTTTTTTTTTTTTTTCTTTTTTATTCTCACAAAAAA [CACACA_negctrl_site1790] | 9.63 ± 0.32 |
| TTTTGAATTAAACAAGCATGCTTTATTTACTTCTTA [TGCATGCA_site289] | 9.49 ± 0.27 |
| TAATTCATCCTATGCACACACAATACCAAAATGTGC [CACACA_site4269] | 10.3 ± 0.23 |
| TAATTTATTAATAATTGTACAGATATTATACTTAAA [XGTACX_site8947] | 10.8 ± 0.55 |
| TGCTCATGAGGTCAGAGTACAAAATAGTAAATGTAT [XGTACX_site2973] | 11.1 ± 0.61 |
| AATAAGCATAGACACACACACAAAAAAAAAAAAAAA [CACACA_site6476] | 10 ± 0.45 |
| TACACAAACAGACACACACACACACGCGCACAAAAA [CACACA_site7192] | 10.6 ± 0.38 |
| ATTACATGTATACATGTCAACACGTATAAAAAAAAA [CACACA_negctrl_site1154] | 10.4 ± 0.24 |
| ATTATAAATATATTTTGTACTTAAAAGGAAAAAAAA [XGTACX_site55] | 11 ± 0.67 |
| TTAACATCTTCGTTGACACACAAAAAAAAAAATAAT [CACACA_site1819] | 10.4 ± 0.42 |
| GATTATCTTCAAGTATGTACACACTATATATAATAA [XGTACX_site5108] | 11.4 ± 0.94 |

| Sequence | gcPBM binding intensity (ln) |
| --- | --- |
| AATAAATAGAGGAAATGTACATATAAAAATAATTTC [XGTACX_site2454] | 11 ± 0.3 |
| GCACGAAACAATGTATATATATATATATATATATAT [GTGCAC_negctrl_site412] | 10 ± 0.57 |
| TTCTTTATGGAAGTGTAAAAAAAGAAATACTTTTTT [CACACA_negctrl_site915] | 10.2 ± 0.28 |
| TATTTTTATATATAATCACACATTGGAATGTTCTAA [CACACA_site5540] | 9.775 ± 0.021 |
| ATAAATGATAGTAAAAGTACACAAAATGTTTTAAAA [XGTACX_site1623] | 11.5 ± 0.88 |
| ATATAACAGAAACACACACACATATATATATATTAT [CACACA_site4140] | 9.9 ± 0.12 |
| AATATAAGATTATTATGTACATAATAAATATGTATT [XGTACX_site4773] | 11 ± 0.42 |
| ATATAAGTATAATTATGTACTTATACTTATATAAAT [XGTACX_site5585] | 11.2 ± 0.71 |
| ATATAATATCTGTATACACACATATTATATAATATT [CACACA_site5940] | 9.99 ± 0.057 |
| TTTGATTTTAATGTGTGTACACATTTATTTATATAA [XGTACX_site4806] | 11.8 ± 1.2 |
| GATTTATATTTTAAAAGTACAAGTTAAAATAAAAGT [XGTACX_site7059] | 11.5 ± 0.89 |
| TTTTATTTAGGAGGTGCATGTAATACGGAACATAAT [TGCATGCA_site827] | 10.5 ± 0.47 |
| CCATAACTCCTATGCACACATAAATATTACAGAGAT [CACACA_site5984] | 10.2 ± 0.16 |
| TTTTTTTTTTTGGTTACACACATTTGTATATTCTCA [CACACA_site134] | 10.3 ± 0.18 |
| CATATTAATACAGAATGTACGGATAACAAACTGTTT [XGTACX_site7935] | 10.9 ± 0.58 |
| GGTCATCATCGGTATTGTACAAAAATGTGAAAATTA [XGTACX_site639] | 11 ± 0.62 |
| ATAATTATATGATGAGTGCACAATAAAAATATCGTT [GTGCAC_site9920] | 10.3 ± 0.2 |
| TTTATTTATTTATATTTTTTTATATAATTTATATAT [GTGCAC_negctrl_site301] | 9.68 ± 0.12 |
| AAAGGTATATATGTGTGTACATATATATATATATAT [XGTACX_site5629] | 11.2 ± 0.72 |
| CATATAATAAATAATACACACATATTGGAAATATAT [CACACA_site3212] | 9.98 ± 0.057 |
| CACATTTCTGTAGTTGCATGTAGAAAAAAAAAAAAA [TGCATGCA_site810] | 10.2 ± 0.28 |
